Experimental data from PubChem BioAssay AID686978 (National Center for Advancing Translational Sciences (NCATS), 2013).
“And” between values parts separate entries of the source, which are not always exact repeats. Identical values can stand only once. Hit rate of the full screen: of about 420,000 compounds, about 64,000 (15%) were called active. Inconclusive results, whose numbers are uncertain, are shown with a selection of clear calls. Calls follow the shape of the dose curve; as a rule, active = well fitted inhibition curve with a large enough effect; inconclusive = small, poorly fitted or top-dose-only effect; inactive = flat fitted curve, though single readings scatter. A potency beside an inconclusive call is a rough fit, not a confirmed value.

Assay: qHTS for Inhibitors of human tyrosyl-DNA phosphodiesterase 1 (TDP1): qHTS in cells in absence of CPT; also: nearly all actives have a fitted effect of over 55% in size
Conditions: DT40 Tdp1-/- hTDP1 cells, no CPT, ATP luminescence, 48 h; activity change, negative = growth inhibition: at 46.2 µM (top of the series) unless noted
Method in brief: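 Camptothecin absent (DMSO only). Human TDP1-complemented DT40 knockout cells, 400 cells/well, 37 °C for minimum 48 hr; ATP measured via CellTiter-Glo, 30 min dark incubation, luminescence.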
% is scaled to controls: 0 for no effect and ±100 for the full control effect; potency is read from the fitted curve at half-maximal effect; tags tell the direction and shape of the fitted curve.

Compound	Potency	activity change, negative = growth inhibition
Cc1ccc(N(Cc2ccccc2)C(=O)c2cc(S(=O)(=O)N3CCOCC3)ccc2F)cc1	active: 7.31 µM	–
CCNC(=O)NC1(C(=O)Nc2ccc3c(c2)OCCO3)CCCCC1	inactive	–
CCN(CC(=O)Nc1ccccc1C(F)(F)F)C(=O)c1ccccc1Sc1ccccc1C#N	inconclusive: 29.1 µM [inhibitor, single point]	–
CN(C)c1cccc(NC(=O)C2(C)Cc3c(-c4cccnc4)ccnc3O2)c1 (stereo not given)	inconclusive: 9.2 µM [inhibitor, partial curve]	–
C=C1C(C(=O)Nc2ccc(OC)cc2)C1C(=O)Nc1ccc(OC)cc1 (stereo not given)	inactive	–
CCOC(=O)c1ccc(NC(=O)CSc2nc3cccnc3n2C)cc1	active: 20.6 µM	–
CC(C)c1ccc(CN2CCC(Oc3ccc(C(=O)N4CCCC4)cc3)CC2)cc1	inconclusive: 29.1 µM [inhibitor, single point]	–
CCc1ccc(S(=O)(=O)Nc2c(C)nn(C)c2C)cc1	active: 11.2 µM	–
O=C(N/N=C/c1ccc(O)cc1)NC12CC3CC(CC(C3)C1)C2	inactive	–
COc1ccc(-c2nnc(SCC(=O)Nc3sc4c(c3C#N)CCCC4)n2-c2ccccc2)cc1	inconclusive: 23.1 µM [inhibitor, single point]	–
Cc1ccc2sc(N(CCCN(C)C)C(=O)CCS(=O)(=O)c3ccccc3)nc2c1C	active: 2.59 µM	–
O=C(C1COc2cc(S(=O)(=O)Nc3ccc(Cl)cc3)ccc2O1)N1CCCC1 (stereo not given)	inconclusive: 20.6 µM [inhibitor, single point]	–
CCC(c1nnnn1Cc1ccc(F)cc1)N(CCCO)Cc1cc2cc3c(cc2[nH]c1=O)OCO3 (stereo not given)	inconclusive: 20.6 µM [inhibitor, partial curve, poor fit]	–
O=C(CSc1nnc(NC(=O)c2ccco2)s1)Nc1ccccc1F	inconclusive: 6.51 µM [inhibitor, single point]	–
COC(=O)/C=C1/SC(=NC(=O)c2cccc([N+](=O)[O-])c2)NC1=O	inconclusive: 25.9 µM [inhibitor, single point]	–
CC(NC(=O)CCC(=O)NC(C)C1COc2ccccc2O1)C1COc2ccccc2O1 (stereo not given)	inconclusive: 10.3 µM [inhibitor, partial curve]	–
C=C[C@]12CC[C@H](OC(C)=O)CC1=CCC1C2CC[C@@]2(C)C1CCC21OCCO1 (stereo not given in full)	inconclusive: 29.1 µM [inhibitor, single point]	–
COc1ccc(C(=O)c2cn(Cc3ccc(F)cc3)c3c(F)cc(F)cc3c2=O)cc1	active: 23.1 µM	–
Cc1ccc(C(=O)COc2ccc3c(C)cc(=O)oc3c2)cc1	inconclusive: 14.6 µM [inhibitor, single point]	–
O=C(N/N=C\c1ccc(Cl)cc1)c1sccc1-n1cccc1	inconclusive: 23.1 µM [inhibitor, partial curve]	–
COc1ccc(C(=O)C2CCCN(S(=O)(=O)C(C)C)C2)c(C)c1 (stereo not given)	inconclusive: 25.9 µM [inhibitor, single point]	–
CCc1sc(C(=O)Nc2ccc3nc(C)sc3c2)cc1C	inconclusive: 29.1 µM [inhibitor, partial curve, poor fit]	–
Cc1sc(NC(=S)NC(=O)CCc2ccccc2)c(C(N)=O)c1C	active: 0.184 µM	–
Cc1ccc(/C=N\NC(=O)c2cc([N+](=O)[O-])cc([N+](=O)[O-])c2)o1	inconclusive: 29.1 µM [inhibitor, single point]	–

Compound	Potency	activity change, negative = growth inhibition
CCN(CC)c1ccc([N+](=O)[O-])cc1C(=O)N1CCOCC1	inactive	–
Cc1ccccc1NC(=O)c1cc(N)ccc1N1CCCCC1	inconclusive: 29.1 µM [inhibitor, single point]	–
CCCN(CCC)c1ccc(C(O)c2nnc(-c3ccccc3)o2)cc1 (stereo not given)	inactive	–
COc1ccc(-c2csc3ncnc(N4CCN(CCO)CC4)c23)cc1	inconclusive: 16.4 µM [inhibitor, partial curve]	–
CCCCn1nnnc1C1(C)CCC(=O)N1C1CC1 (stereo not given)	inactive	–
Cc1ccccc1NC(=S)N(C)Cc1cn(C)c2ccccc12	inconclusive: 20.6 µM [inhibitor, single point]	–
COc1ccc(NC(=S)NC(C)Cc2cccs2)cc1 (stereo not given)	inactive	–
CN1CCN(CCCNC(=O)c2ccc3c(Cl)c4c(nc3c2)CCCC4)CC1	active: 20.6 µM	–
CCn1c(C2CC(=O)N(c3ccc(C)c(C)c3)C2)nc2ccccc21 (stereo not given)	active: 18.4 µM	–
NC(=O)[C@@H]1CCCN1C(=O)c1cc(COc2ccc3c(c2)CCCC3)on1	inconclusive: 18.4 µM [inhibitor, single point]	–
CCCC(=O)O[C@]1(C(=O)COC(C)=O)CC[C@H]2[C@@H]3C[C@H](F)C4=CC(=O)C=C[C@]4(C)[C@@]3(F)[C@@H](O)C[C@@]21C	inconclusive: 29.9 µM [inhibitor, single point]	–
O=C(Cn1ncc2c3ccccc3n(Cc3ccccc3)c2c1=O)NCc1ccccc1	inconclusive: 23.1 µM [inhibitor, single point]	–
O=C(CSc1nnnn1-c1ccc2c(c1)CCC2)Nc1ccc2c(c1)OCCO2	inconclusive: 9.2 µM [inhibitor, partial curve]	–
CCOC(=O)COc1ccccc1/C=N/O	inactive	–
COc1ccc(NC(=O)c2sc(=O)n(Cc3ccc4ccccc4c3)c2C)cc1OC	inconclusive: 29.1 µM [inhibitor, single point]	–
COc1ccc(/C=C/C(=O)C2(O)CCCCC2)cc1OC	inconclusive: 18.4 µM [inhibitor, partial curve]	–
Cc1ccc(Cn2c(C)c(CNCc3ccccc3F)c(C(=O)O)c2C)cc1	inconclusive: 29.1 µM [inhibitor, single point]	–
COc1ccc(S(=O)(=O)N2CCCCC2)cc1NC(=O)CCCOc1ccccc1	inconclusive: 23.1 µM [inhibitor, single point]	–
CCc1ccccc1N(C)C(=O)c1cc2c(s1)-c1c(C)cccc1OC2	active: 23.1 µM	–
CC(=O)OCC#CCSc1nc2ccccc2n1C	inactive	–
Cc1ccc(CN2CCN(C(=O)/C=C/[C@H]3O[C@@H](n4cc(C)c(=O)[nH]c4=O)C[C@@H]3O)CC2)cc1	inactive	–
OC(c1ccc(-c2ccccc2)cc1)c1ncc(-c2ccccc2)[nH]1 (stereo not given)	inconclusive: 20.6 µM [inhibitor, single point]	–
COc1ccc(CCNc2nc(-c3sc(N)nc3C)cs2)cc1OC	active: 16.4 µM	–
CN1CCC(C2(O)c3ccccc3CSc3sccc32)CC1 (stereo not given)	inactive	–

Compound	Potency	activity change, negative = growth inhibition
Cc1ccc(C2CC(C(F)(F)F)n3nc(C(=O)Nc4c(C)n(C)n(-c5ccccc5)c4=O)cc3N2)cc1 (stereo not given)	inconclusive: 29.1 µM [inhibitor, single point]	–
Cc1ccc(NC(=O)CSc2nc3ccc(NC(=O)c4cccc(Cl)c4)cc3s2)c(C)c1	inconclusive: 5.8 µM [inhibitor, partial curve]	–
CC(C(=O)Nc1ncc([N+](=O)[O-])s1)N1C(=O)c2ccccc2S1(=O)=O (stereo not given)	inactive	–
CCOC(=O)c1ccc(N2C(=O)c3n[nH]c(-c4ccco4)c3C2c2cccc(F)c2)cc1 (stereo not given)	active: 20.6 µM	–
CCCN1CCN(CCCNC(=O)C(CC)n2nc(C)c3sc4ccccc4c3c2=O)CC1 (stereo not given)	inactive	–
CCOC(=O)c1ccc(S(=O)(=O)NNc2ccc(C(F)(F)F)cn2)cc1	inactive	–
CCCCCCSc1cc(C)nc2ncnn12	active: 11.6 µM	–
COCCNC(=O)c1cc2c(c(-c3cccc(-c4cc5ccccc5o4)c3)n1)[C@H](CCO)N(S(=O)C(C)(C)C)C2 (stereo not given in full)	active: 23.1 µM	–
O=c1oc2cc(Oc3ccc(C(F)(F)F)cc3[N+](=O)[O-])ccc2c2c1CCC2	inactive	–
Cc1cc2ncc(-c3ncc(C(F)(F)F)cc3Cl)cn2n1	–	inconclusive: -32.6% [inhibitor]
COc1ccc(CNC(=O)O[C@H]2CN(C(=O)OC(C)C)N(C(=O)OC(C)C)[C@@H]3CN(S(=O)(=O)c4ccc(C)cc4)C[C@]23O)cc1OC	active: 23.1 µM	–
Cc1nn(-c2ccccn2)c2c1C(c1ccncc1)C1=C(CC(C)(C)CC1=O)N2 (stereo not given)	inconclusive: 16.4 µM [inhibitor, single point]	–
COC(=O)C(CSCc1ccccc1)NC(=O)CSc1nc(C)cc(=O)[nH]1 (stereo not given)	inactive	–
CCc1ccc(S(=O)(=O)c2nnn3c2nc(N2CCN(CC)CC2)c2sccc23)cc1	inconclusive: 29.1 µM [inhibitor, single point]	–
CCNc1ccc(S(=O)(=O)N(C)C)cc1NCC(=O)Nc1ccccc1F	inconclusive: 29.1 µM [inhibitor, single point]	–
Cc1nc2c3cc(Cl)ccc3n(CCN3CCOCC3)c2s1	active: 14.6 µM	–
CCC[C@H](N[C@@H](C)C(=O)N1[C@H](C(=O)O)C[C@@H]2CCCC[C@@H]21)C(=O)OCC	inactive and inconclusive: 29.1 µM [inhibitor, single point]	–
CC1=C(C(=O)N(C(C)C)C(C)C)CC(CC(=O)NCc2ccco2)C(=O)N1Cc1ccccc1 (stereo not given)	inconclusive: 29.1 µM [inhibitor, single point]	–
O=C(Nc1ccc(F)cc1)N1CCCC(c2nc3c(nnn3Cc3ccccc3Cl)c(=O)[nH]2)C1 (stereo not given)	inconclusive: 29.1 µM [inhibitor, single point]	–
Cc1cc(C)n(CCNC(=O)CC2C(=O)NCCN2CC2CCCCC2)n1 (stereo not given)	inactive	–
Cc1ccc(S(=O)(=O)CCC(=O)Nc2cccc([N+](=O)[O-])c2)cc1	inconclusive: 29.1 µM [inhibitor, single point]	–
COc1cccc(C2C(C#N)=C(N)SC(c3ccccc3)C2[N+](=O)[O-])c1 (stereo not given)	inconclusive: 29.1 µM [inhibitor, single point]	–
